Sequences and labels used below:
B1: OR4K15 (parent)
chain: GUUAACGGUCAUAGGCCAUGGAAACUAGGAGCACCAUUUCGCUGCCAGUGAAGAAAUGAACAAAGAAAAUCUGGGCCAGGCAGGCAUCAAAAGAAAUAGUCUUGCGCUCAACCAGAAAGUCUGUAAUCAUUUUAAGGGUA

The source gives no read counts; variants with many changes may rest on few reads.

In this data set the parent is B1. Put plainly: self-cleavage, relative activity (ratio to wild type); higher = more cleavage; in vitro, sequencing; the parent is a self-cleaving ribozyme.
As to GUUAACGGUCAUAGGCCAUGGAAGCUAGGAGCACCAUUUCGCUGCCAGUGAAGAGGUGAACGAAGAAAAUCUGGGCCAGGCAGGCACCAAAAGAAAUAGUCUUGCGCUCAACCAGAAAGUCUGUAAUCAUUUUAAGGGUA [A24G A55G A56G A62G U87C], the self-cleavage worked out at 0.61.
For GUUAACGGUCAUAGGCCAUGGAAGCUAGGAGCACCAUUUCGCUGCCAGUGAAGAAAUGAACGAAGAAAAUCUGGGCCAGGCGGGCAUCAAAAGAAAUAGUCUUGCGCUCAACCAGCAAGUCUGUGAUCAUUUUAAGGGUA [A24G A62G A82G A116C A125G], the self-cleavage is 0.01.
For GUUAACGGUCAUAGGCCAUGGAAGCUAGGAGCACCAUUUCGCUGCCAGUGAAGAAAUGAACGAAGAAAAUCUGGGCCAGGCAGGCAUCAAAAGAAAUAGUCUUGCGCUCAACCAGAAAGUCUGUAAUCAUUUUAAGGGUG [A24G A62G A140G], the self-cleavage was determined as 1.13.
Consider GUUAACGGUCAUAGGCCAUGGAAGCUAGGAGCACCAUUUCGCUGCCAGUGAAGAUAUGAACAAAGAAAAUCUGGGCCAGACAGGCAUCAAAAGAAAUAGUCUUGCGCUCAACCAGAAAGUCUGUAACCAUUUUAAGGGUA [A24G A55U G80A U127C], for which the self-cleavage came out at 0.12.
The same measure for GUUAACGGUCAUAGGCCAUGGAAGCUAGGAGCACCAUUUCGCUGCCAGUGAAGGAAUGAACAAAGAAAAUCUGGGCCAGGCAGGCAUCAAAAGGAAUAGUCUUGCGCUCAACCAGAAAGUCUGUAAUCAUUUUAAGGGUA [A24G A54G A94G]: 2.15; for GUUAACGGUCAUAGGCCAUGGAAGCUAGGAGCACCAUUUCGCUGCCAGUGAAGAAGUGGACCAUGAAAAUCUGGGCCUGGCAGGCUUCAAAAGAAAUAGUCUUGCGCUCAACCAGAAAGUCUGUAAUCAUUUUAAGGGUA [A24G A56G A59G A62C A64U A78U A86U]: 0.47; for GUUAACGGUCAUAGGCCAUGGAAGCUAGGAGCACCAUUUCGCUGCCAGUGAGGAAAUGAACAAAGAAAAUCUGGGCCAGGCAGGCAUCAAAAGAAAUAGUCUUGCGCUCAACCAGAAAGUCUGUAACCAUUUUAAGGGUA [A24G A52G U127C]: 0.86.
In the case of GUUAACGGUCAUAGGCCAUGGAAGCUAGGAGCACCAUUUCGCUGCCAGUGAAGAAAUGAGCAAAGAAAAUCUGGGCCAGGCGGGCAUCAAAAGAGAUAGUCUUGCGCUCAACCAGGAAGUCUGUAAUCAUUUUAAGGGUA [A24G A60G A82G A95G A116G], the self-cleavage was determined as 0.12.
The same measure for GUUAACGGUCAUAGGCCAUGGAAGCUAGGAGCACCAUUUCGCUGCCAGUGAAGAAGUGAACAAAGAAAAUCUGGGCCAGGCAGGCAUCGAAAGAAAUAGUCUUGCGCUCAACCAGAAAGUCUGUAAUCAUUUUGAGGGUA [A24G A56G A89G A134G]: 1.93; for GUUAACGGUCAUAGGCCAUGGAAGCUAGGAGCACCAUUUCGCUGCCAGUGAAGAGAUAAACAAAGAAAAUCUGGGCCAGGCAGGCAUCAAAAGAAAUAGUCUUGCGCUCAACCAGAAGGUCUGUAAUCAUUUUAAGGGUA [A24G A55G G58A A118G]: 0.39.
The same measure for GUUAACGGUCAUAGGCCAUGGAAGCUAGGAGCACCAUUUCGCUGCCAGUGAAGAAUAGAACAAAGAAAAUCUGGGCCAGGCAGGCAUCAAAAGAAAUAGUCUUGCGCUCAACCAGAAAGUCUGUAAUCAUUUUAAGGGUA [A24G A56U U57A]: 1.2; for GUUAACGGUCAUAGGCCAUGGAAGCUAGGAGCACCAUUUCGCUGCCAGUGAAGUAAUGAACAAAGAAAAUCUGGGCCAGGCAGGCAUCAAAAGAAAUAGUCUUGCGCUCAGCCAGAAAGUCUGUAAUCAUUUUAAGGGUA [A24G A54U A111G]: 0.05; for GUUAACGGUCAUAGGCCAUGGAAGCUAGGAGCACCAUUUCGCUGCCAGUGAAGUAAUGAACAAAGAAAAUCUGGGCCAGGCAGGCAUCCAAAGAAAUAGUCUUGCGCUCAACCAGAAAGUCUGUAAUCAUUUUAAGGGUA [A24G A54U A89C]: 2.26.
The same measure for GUUAACGGUCAUAGGCCAUGGAAGCUAGGAGCACCAUUUCGCUGCCAGUGAAGGAAUGAACAAAGAAAAUCUGGGCCAGGCAGGCAUCAAAAGAAAUAGUCUUGCGCCCAACCAGAAAGUCUGUAACCAUUUUAAGGGUA [A24G A54G U108C U127C]: 0.
On to GUUAACGGUCAUAGGCCAUGGAAGCUAGGAGCACCAUUUCGCUGCCAGUGAAGGAAUGAACUAAGAAAAUCUGGGCCAGGCAGGCAUCAAAAGAAAUAGUCUUGCGCUCAACCAGAAAGUCUGUAAUCGUUUUAAGGGUA [A24G A54G A62U A129G], for which the self-cleavage amounted to 0.75.
The figure for GUUAACGGUCAUAGGCCAUGGAAGCUAGGAGCACCAUUUCGCUGCCAGUGAAGAAAUGCACAAAGAAAAUCUGGGCCAGGCAGGCAUCAGAAGAAAUAGUCUUGCGCUCAACCAGAAAGUCUGUAAUCAUUUUAAGGGUA [A24G A59C A90G] is 0.45; for GUUAACGGUCAUAGGCCAUGGAAGCUAGGAGCACCAUUUCGCUGCCAGUGAAGAAAUGCACAAAGAAAAUCUGGGCCGGGCAGGCAUCAAAAGAAAUAGUCUUGCGCUCACCCAGAAAGUCUGUAAUCAAUUUAAGGGUA [A24G A59C A78G A111C U130A] it is 0.01; for GUUAACGGUCAUAGGCCAUGGAAGCUAGGAGCACCAUUUCGCUGCCAGUGAAGAAGUUAACAAAGAAAAUCUGGGCCAGGCAGGCAUCAAAAGAAAUAGUCUUGCGCUCAACCAGAAAGUCUGUAAUCAUUUUAAGGGUA [A24G A56G G58U] it is 1.28.
The same measure for GUUAACGGUCAUAGGCCAUGGAAGCUAGGAGCACCAUUUCGCUGCCAGUGAAGAGAUGAGCAAAGAAAAUCUGGGCCAGGCAGGCAUCAAAAGAAAUAGUCUAGCGCUCAACCAGAAAGUCUGUAAUCAUUUUAAGGGUA [A24G A55G A60G U103A]: 0.65; for GUUAACGGUCAUAGGCCAUGGAAGCUAGGAGCACCAUUUCGCUGCCAGUGAAGAAAUGUACAAAGGAAAUCUGGGCCAGGCAGGCAUCAAAAGAGAUAGUCUUGCGCUCAACCAGAAAGUCUGUAAUCAUUUUAAGGGUA [A24G A59U A66G A95G]: 0.8; for GUUAACGGUCAUAGGCCAUGGAAGCUAGGAGCACCAUUUCGCUGCCAGUGAGGAAAUGAACAAAGAAGAUCUGGGCCAGGCAGGCGUCAAAAGAAAUAGUCUUGCGCCCAACCAGAAAAUCUGUAAUCAUUUUAAGGGUA [A24G A52G A68G A86G U108C G119A]: 0.02.
With GUUAACGGUCAUAGGCCAUGGAAGCUAGGAGCACCAUUUCGCUGCCAGUGAAGAAAUGAACGAAGAAAAUCUGGGCCAGGCAGGCAUCAAAAGAAAUAGUCUUGCGCUCAACCAGAAAGUCUGUAAUCAUAUUAAGGGUA [A24G A62G U131A], the self-cleavage stood at 0.97.
The same measure for GUUAACGGUCAUAGGCCAUGGAAGCUAGGAGCACCAUUUCGCUGCCAGUGAUGAAAUGAACAAAGAAAAUCUGGGCCAGGCAGGCACCAAAAGAAAUAGUCUUGCGCUCAACCAGAAAGUCUGUAAUCAUUUUAAGGGUA [A24G A52U U87C]: 0.5; for GUUAACGGUCAUAGGCCAUGGAAGCUAGGAGCACCAUUUCGCUGCCAGUGAAGAAAUGAACAGAGAAAAUCUGGGCCAGGCAGGCGUCAAAAGAAAUAGUCUUGCGCUCAACCAGAAAGUCUGUAAUCAUUUUAAGGGUA [A24G A63G A86G]: 1.63; for GUUAACGGUCAUAGGCCAUGGAAGCUAGGAGCACCAUUUCGCUGCCAGUGAAGAGAUGAACAAAGAAAAUCUGGGCCAGGCAGGCAUCAAAAGAAAUAGUCUUGCGCUCAACCAGAAAGUCCGUAAUCAUUUUAAGGGUA [A24G A55G U122C]: 0.9.
The figure for GUUAACGGUCAUAGGCCAUGGAAGCUAGGAGCACCAUUUCGCUGCCAGUGAAGAAAUGAGCAAAGAAAAUCUGGGCCAGGCAGGCAUCGAAAGAAAUAGUCUUGUGCUCAACCAGAAAGUCUGUAAUCAUCUUAAGGGUA [A24G A60G A89G C105U U131C] is 0.14.
For the variant GUUAACGGUCAUAGGCCAUGGAAGCUAGGAGCACCAUUUCGCUGCCAGUGAAGAAAUGAGCAAAGAAAAUCUGGGCCAGGCAGGCGUCAAAAGAAAUAGUCUUGCGCUCAACCAGAAAGUCUGUAAUCAUUUUAAGGGUA [A24G A60G A86G], the self-cleavage came out at 1.56.
The same measure for GUUAACGGUCAUAGGCCAUGGAAGCUAGGAGCACCAUUUCGCUGCCAGUGAAGAAAUGAGCAAAGAAAAUCUGGGCCAGGCAGGCAUCAAAAGAGAUAGUCUUGCGCUCAACCAGAAAGUCUGUAAUCAUUUUAAGGGUA [A24G A60G A95G]: 1.5; for GUUAACGGUCAUAGGCCAUGGAAGCUAGGAGCACCAUUUCGCUGCCAGUGAAGGAAUGAACAAAGAGAAUCUGGGCCAGGCAGGCAUCAAAAGAAAUAGUCUUGCGCUCAACCAGAAAGUCUGUAAUCAUUUUAAGGGUA [A24G A54G A67G]: 1.07.
As to GUUAACGGUCAUAGGCCAUGGAAGCUAGGAGCACCAUUUCGCUGCCAGUGAAGUAAUGAACAAAGAAAAUCUGGGCCAGGCAGGCAUCAGAAGAAAUAGUCUUGCGCUCAACCAGAAAGUCUGUAAUCAUUUUAAGGGUA [A24G A54U A90G], the self-cleavage turned out to be 1.27.
In the case of GUUAACGGUCAUAGGCCAUGGAAGCUAGGAGCACCAUUUCGCUGCCAGUGAAGAAAUGAUCAAAGAAAAUCUGGGCCAGGCAGGCAUCAAAAGAAAUAGUCUUGCGCUCAACCAGAAAGUCUGUAAUCAUCUUAAGGGUA [A24G A60U U131C], the self-cleavage amounted to 1.03.
Regarding GUUAACGGUCAUAGGCCAUGGAAGCUAGGAGCACCAUUUCGCUGCCAGUGAAGAAAUGGACAAAGAAAAUCUGGGCCAGGCAGGCAUCAAGAGAAAUAGUCUUGCGCUCAACCAGAAAGUCUGUAAUCAUUUUAAGGGUA [A24G A59G A91G], the self-cleavage was determined as 0.9.
The figure for GUUAACGGUCAUAGGCCAUGGAAGCUAGGAGCACCAUUUCGCUGCCAGUGAAGAAAUGAGCAAAGAAAAUCUGGGCCAGGCAGGCAUCAAAAGAAAUAGUCUUGCGCUCAAGCAGAAAGUCUGUAAUCAUUUUAAGGGUA [A24G A60G C112G] is 0.02; for GUUAACGGUCAUAGGCCAUGGAAGCUAGGAGCACCAUUUCGCUGCCAGUGAAGUAAUGAACAAAGAAAAUCUGGGCCAGGCAGGCAUCAAAAGAAAUAGUCUUGCGCUCAACCAGAAAGUCUGUAAUCAUCUUAAGGGUA [A24G A54U U131C] it is 1.72; for GUUAACGGUCAUAGGCCAUGGAAGCUAGGAGCACCAUUUCGCUGCCAGUGAAGAAAUGUACAAAGAAAAUCUGGGCCAGGCAGGCAUCAAAAGAAAAAGUCUUGCGCUCUACCAGAAAGUCUGUAAUCAUUUUAAGGGUA [A24G A59U U97A A110U] it is 0.7.
The same measure for GUUAACGGUCAUAGGCCAUGGAAGCUAGGAGCACCAUUUCGCUGCCAGUGAAGAAAUGAACAGGGAAAAUCUGGGCCAGGCAGGCAUCAAAAGAAAUAGUCUUGCGCUCAACCAGAAAGUCUGUAAUCAUUUUAAGGGUA [A24G A63G A64G]: 1.78.
The figure for GUUAACGGUCAUAGGCCAUGGAAGCUAGGAGCACCAUUUCGCUGCCAGUGAAGAAAUGAACUAAGAAAAUCUGGGCCGGGCAGGCAUCAAAAGAAGUAGUCUUGCGCUCAACCAGAAAGUCUGUAAUCAUUUUAAGGGUA [A24G A62U A78G A96G] is 0.22.
Turning to GUUAACGGUCAUAGGCCAUGGAAGCUAGGAGCACCAUUUCGCUGCCAGUGAAGAAAUGAGCAAAGAAAAUCUGGGCCAGGCAGGCAUCAAAAGAAAUAGUAUUGCGCUCAACCAGAAAGUCUGUAAUCAUUUUAAGGGUA [A24G A60G C101A], the self-cleavage is 0.11.
As to GUUAACGGUCAUAGGCCAUGGAAGCUAGGAGCACCAUUUCGCUGCCAGUGAAGAAAUGAACUAAGAAAAUCUGGGCCAGGCAGGCAUCAAAAGAAAUAGUCUUGCGCUCAGCCAGAAAGUCUGUAAUCAUUUUAAGGGUA [A24G A62U A111G], the self-cleavage came to 0.03.
The same measure for GUUAACGGUCAUAGGCCAUGGAAGCUAGGAGCACCAUUUCGCUGCCAGUGAUGAAAUGAACAAAGAAAAUCUGGGCCAGGCAGGCAUCAAAAGAAAUAGCCUUGCGCCCAACCAGAAAGUCUGUAAUCAUUUUAAGGGUA [A24G A52U U100C U108C]: 0.03; for GUUAACGGUCAUAGGCCAUGGAAGCUAGGAGCACCAUUUCGCUGCCAGUGAAGAAGUGAACAAAGAAAAUCUGGGCCAGGCAGGCAUCAAAAGAAAUAGUCUUGCGCUCAACCAGAAAGUCCGUAAUCAUCUUAAGGGUA [A24G A56G U122C U131C]: 0.17.

For the origin of these results see the RNAGym collection of RNA variant scans (doi:10.7554/elife.90254).
